For series [1], the system named is C57BL/6 mice. The series can be described thus: Survival and hormone levels after lethal TBI, with surgical castration. Format: in vivo, mouse. The text has this:
FIG. 12A, percent survival in mice given total body irradiated (TBI, black circle), mice given total body irradiated plus castration (TBI+castration, grey triangle) and mice given total body irradiated plus castration and treated with Degarelix (TBI+castration+LHRH-Ant, grey inverted triangle). FIG. 12B, ng/mL levels of testosterone, luteinizing hormone (LH) and follicle-stimulating hormone (FSH) at 2, 7 and/or 14 days after a lethal dose of total body irradiation among control (open bars), lethal total body irradiated (LTBI, black bars) and lethal total body irradiation treated with Degarelix (LTBI+LHRH-Ant, grey bars).
In another experiment, we wanted to determine if downstream and/or upstream targets could also have an effect on survival after TBI in mice. Mice were surgically castrated one day before total body irradiation (TBI) and administered vehicle (control) or Degarelix (LHRH-Ant). […] Measurements of testosterone, follicle-stimulating hormone (FSH) and luteinizing hormone (LH) were taken for each treatment group at several days post irradiation.

Series [2] has as its system C57BL/6 mice. The series can be described thus: Survival after a lethal dose of irradiation (845 cGy).
For series [3], the system named is Luc+ LSK hematopoietic stem cells. Description: Expansion of transferred Luciferase-positive LSK cells after lethal TBI. Format: in vivo, mouse. The note with it: 840 cGy, treated 24 hours later, Luc+ LSK transferred 48 hours after treatment, vs vehicle. How it is done:
Bottom left is a bar graph indicating the total number of photons measured in both treatment groups.
We continued our analysis of the increase in hematopoietic stem cells (HSCs) in mice treated with a LHRH antagonist after irradiation using a reporter molecule (Luciferase). […] At 48 hours after treatment, 20,000 Luciferase-positive Lineage-Sca1^+ckit^+ (Luc^+ LSK) hematopoietic stem cells were transferred to animals in each treatment group.

The subject of series [4] is CD5+ enriched splenocytes. The series can be described thus: T cell in vitro assay (proliferation, cytokine production) of splenocytes 42 days after SL-TBI. Format: cell-based, mouse. Conditions: T cells from treated mice 42 days after SL-TBI. As for the experimental part: To evaluate T cell proliferation and cytokine production, spleens were harvested 42 days after SL-TBI and T cells were purified by CD5^+ selection. Half of the cells were stimulated for 5 hours with PMA, Ionomycin (50 ng/ml and 1 ug/ml, respectively) and BD Golgi Plug (1 μl/ml) and cytokines evaluated by intracellular flow cytometric analysis. The remaining cells were CFSE (Invitrogen) labeled and plated on αCD3/αCD28 (5 μg and 1 μg, respectively) pre-coated plates. Proliferation was assessed by measuring the number of cell divisions 2 days after stimulation by flow cytometric analysis.

Series [5] relates to hematopoietic stem cells (LSK, LT-HSC). Description: Hematopoietic stem and progenitor cells after lethal TBI. Format: in vivo, mouse. Conditions: treated 24 hours later. From the text: FIG. 8A, bar graphs (left) show total number of cells for LSK and LT-HSC populations among treatment groups; contour plots (right) show the relative frequency of each LSK and LT-HSC populations among treatment groups. FIG. 8B, bar graphs (top row) show the percentage of LT-HSCs (CD150^+CD48^−) for the indicated gated populations (G0, G1, S/G2/M); contour plots (bottom) show the relative frequency of the LT-HSC populations for each gate among both treatment groups.
Mouse survival was monitored daily.
Further, we observed an induction of LT-HSCs to proliferate (FIG. 8B), which is a prerequisite to reconstitution of hematopoiesis.

The test system of series [6] is lymphocytic choriomeningitis virus (LCMV). Type of series: in vivo, mouse. Conditions: day 8 after infection, vs vehicle treated mice.
The subject of series [7] is C57BL/6 allo-HSCT recipients. The series can be described thus: Thymic and peripheral reconstitution after allo-HSCT. The note with it: for at least 3 months after transplant.
The test system of series [8] is hematopoietic stem cells. The series can be described thus: Repopulating potential of hematopoietic stem cells in secondary transplant. The note with it: vs control group.
For series [9], the system named is C57BL/6 mice. Description: Lymphoid reconstitution, treatment 24 h after SL-TBI.
Series [10] deals with C57BL/6 recipients. Description: Murine GVHD model. The note with it: LHRH-Ant treated versus control mice. Format: in vivo, mouse.

This is an account of results in patent US20200268852A1, “HEMATOPOIETIC RECOVERY FROM RADIATION INJURY” (priority 2013, published 2020).

Square brackets hold non-standard residues; d marks the D form. Peptide text beside a SMILES is read from it. * marks the point of attachment. dPhe(4-NHCONH2) = NC(=O)Nc1ccc(C[C@@H](N)C(=O)O)cc1; Dihydroorotyl(S) = O=C1C[C@@H](C(=O)*)NC(=O)N1; dPhe(4-Cl) = N[C@H](Cc1ccc(Cl)cc1)C(=O)O; Phe(4-NH2) = Nc1ccc(C[C@H](N)C(=O)O)cc1; d2Nal = N[C@H](Cc1ccc2ccccc2c1)C(=O)O; Lys(iPr) = CC(C)NCCCC[C@H](N)C(=O)O; d3Pal = N[C@H](Cc1cccnc1)C(=O)O

Consider `CC(=O)N[C@H](Cc1ccc2ccccc2c1)C(=O)N[C@H](Cc1ccc(Cl)cc1)C(=O)N[C@H](Cc1cccnc1)C(=O)N[C@@H](CO)C(=O)N[C@@H](Cc1ccc(NC(=O)[C@@H]2CC(=O)NC(=O)N2)cc1)C(=O)N[C@H](Cc1ccc(NC(N)=O)cc1)C(=O)N[C@@H](CC(C)C)C(=O)N[C@@H](CCCCNC(C)C)C(=O)N1CCC[C@H]1C(=O)N[C@H](C)C(N)=O` [Degarelix] (Ac-[d2Nal][dPhe(4-Cl)][d3Pal]S[Phe(4-NH2)](Dihydroorotyl(S))[dPhe(4-NHCONH2)]L[Lys(iPr)]P[dA]-NH2), for which, in series [1] (after lethal TBI, vs controls), the “LH and FSH levels” value was “relatively unchanged”; the level of testosterone result is “drastically less”. The survival result in [1] (mice surgically castrated one day before TBI and administered Degarelix) was “enhanced survival”. In series [2] (Degarelix-treated vs control group after lethal TBI), the incidence of survival entry is “higher incidence of survival”. In addition, the “survival, Mantel-Cox log-rank p, Degarelix vs vehicle” value in series [2] (females, n=15, single dose 24 hours after 845 cGy) is given as under 0.001. Moreover, in series [2] (lethal TBI 845 cGy), the “window for treatment after total body irradiation” value is reported as “at least 48 hours”. Also, the “survival, Mantel-Cox log-rank p, Degarelix vs vehicle” value in series [2] (males and females, n=14, single dose 48 hours after 845 cGy) is under 0.05. Besides, the “survival, Mantel-Cox log-rank p, Degarelix vs vehicle” value in [2] (males, n=40, single dose 24 hours after 845 cGy) is reported as under 0.0001. The “expansion of Luciferase-positive HSCs” value in series [3] was “consistently more expansion”. For the same compound, in series [4], the “proliferation of CD4+ T cells upon T cell receptor (TCR) ligation” value is recorded as “significantly increased”. In addition, in [5], the “proliferation of LT-HSCs” value was “induction”. In addition, in series [5] (vs controls), the “long-term hematopoietic stem cells (LT-HSC)” value is “significantly more” and the “total Lineage-Sca1+ckit+ (LSK) cells” value is “significantly more”. Further, the “LCMV viral burden in spleen” value in [6] is reported as “significantly lower”. The developing thymocytes entry in series [7] is given as “significant increase in all subsets”. Also, the “stem cells (donor CD45.2+ derived cells in recipients)” value in [8] is given as “more stem cells”. Besides, the thymic stroma result in series [9] (7 days after SL-TBI, vehicle vs Degarelix) is “did not show significant difference”. Besides, the “CD8+ naive T cells” value in [9] (42 days after SL-TBI) is given as “most increased population”. In addition, the thymic cellularity result in [9] (42 days after SL-TBI, vs vehicle treated and untreated mice) is “significantly higher”. Besides, the all thymic subsets entry in [9] (42 days after SL-TBI, vs vehicle-treated and untreated mice) is reported as “significantly increased”. For the same compound, in series [9] (day 7 after SL-TBI), the DP thymocytes entry is recorded as “significant increase”. Besides, the “CD4+ and CD8+ thymocytes counts” value in [9] (day 7 after SL-TBI, vs irradiated control mice) is reported as “did not detect a significant enhancement”. Besides, in series [9] (day 7 after irradiation, vs vehicle), the thymus cellularity entry is reported as “significantly increased”. Further, in series [9] (day 28 and 42, vs vehicle group), the B cell counts entry is “significantly increased”. Also, the mTEChi cell number entry in series [9] (day 42 after SL-TBI) is given as “significantly increased”. The splenic cellularity entry in series [9] (starting from day 28 after SL-TBI) is “recovered faster”. Also, the GVHD mortality entry in [10] is reported as “did not observe significant difference”.

Regarding `CCNC(=O)[C@@H]1CCCN1C(=O)[C@H](CCCNC(=N)N)NC(=O)[C@H](CC(C)C)NC(=O)[C@@H](CC(C)C)NC(=O)[C@H](Cc1ccc(O)cc1)NC(=O)[C@H](CO)NC(=O)[C@H](Cc1c[nH]c2ccccc12)NC(=O)[C@H](Cc1c[nH]cn1)NC(=O)[C@@H]1CCC(=O)N1` [Lupron, leuprolide], the survival entry in [2] (single dose of Lupron 24 hours after lethal TBI (845 cGy), vehicle PBS) is reported as “significant survival”.
